# Experimental data as given in the supplement of paper PMC4166925.
# ± gives the standard deviation of the averaged measurements. Over roughly 33,000 sequences, “E-score (dimensionless, -0.5 to 0.5)” has its median near -0.046; the highest 2% begin near 0.36. Some of the results follow.
# System: T1, SpTbr T-box DNA-binding domain (GST fusion)
# T1 sequence: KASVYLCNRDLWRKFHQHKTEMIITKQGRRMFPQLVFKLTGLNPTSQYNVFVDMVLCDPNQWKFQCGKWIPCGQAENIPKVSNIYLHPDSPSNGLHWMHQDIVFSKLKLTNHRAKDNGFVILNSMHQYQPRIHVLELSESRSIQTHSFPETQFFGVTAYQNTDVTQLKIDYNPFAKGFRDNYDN
# Experiment: PBM E-score of 8-mer (E-score (dimensionless, -0.5 to 0.5)); Tbr is Tbrain of the sea star Patiria miniata (Pm) or the sea urchin Strongylocentrotus purpuratus (Sp); higher = stronger binding preference; most listed sequences are background and not binding sites
# Settings: the construct has about 5 more residues each side
# Procedure, shortened: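 Primer extension turned Universal Agilent oligonucleotide arrays double-stranded. They were incubated with 200 nM protein in PBS (pH 7.5); the protein was a GST-fused Tbr T-box DNA-binding domain expressed in BL21 E. coli at 20 °C and purified on glutathione. Every ungapped 8-mer was scored from the scanned, quantified probe intensities, and the Universal PBM Analysis Suite gave each an enrichment E-score averaged over duplicate arrays.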
row,Sequence,PBM E-score of 8-mer
1,AACCCTGC,0.0496 ± 0.055
2,ACAATCCT,0.0327 ± 0.08
3,CACATATG,0.323 ± 0.02
4,ATGTGTCA,0.4671 ± 0.00078
5,CGTAGCTA,-0.129 ± 0.022
6,AATAATCC,-0.257 ± 0.028
7,GTACCTAA,-0.251 ± 0.012
8,ACCCGCCC,-0.0563 ± 0.028
9,AACTCTGG,0.00764 ± 0.0044
10,ATTGCTGG,-0.0842 ± 0.02
11,ACGTCTTG,-0.0206 ± 0.0054
12,TATCCACA,0.0934 ± 0.019
13,CTATGGAC,-0.104 ± 0.077
14,AGTTTCCA,-0.0124 ± 0.047
15,GTTCCTCA,-0.0698 ± 0.064
16,AGCAATAG,0.00507 ± 0.035
17,AACATACA,-0.101 ± 0.0086
18,CGGCTTAA,-0.0537 ± 0.021
19,ACCGTGCG,0.127 ± 0.015
20,GTAGGCAA,0.0709 ± 0.015
21,AGAGGCTA,-0.0205 ± 0.018
22,ACGTCGTG,0.0557 ± 0.0025
23,CCCCACAG,-0.0676 ± 0.036
24,GATCTACC,-0.162 ± 0.033
25,CTTAGAAG,-0.118 ± 0.016

row,Sequence,PBM E-score of 8-mer
1,AACGACTT,0.211 ± 0.018
2,AGCGTATG,-0.218 ± 0.088
3,GACTCCTA,-0.27 ± 0.052
4,AGCATCGC,0.0181 ± 0.026
5,AAACGTTG,-0.208 ± 0.035
6,CCCGGGTA,-0.108 ± 0.036
7,CATTCTAC,0.0187 ± 0.11
8,CAGTCATG,-0.0975 ± 0.045
9,CAATACTA,-0.0717 ± 0.077
10,CGATACCA,0.055 ± 0.054
11,ACATTCTA,-0.15 ± 0.025
12,AACCGTGC,0.0724 ± 0.018
13,CCAATAGA,-0.1 ± 0.083
14,CGGTAGCC,-0.215 ± 0.03
15,CTGACTAA,-0.0557 ± 0.041
16,GGGTATAA,-0.132 ± 0.008
17,CTGTATCA,-0.1466 ± 0.00092
18,GAAGAATC,0.0567 ± 0.027
19,CACTCTGA,0.0469 ± 0.044
20,CAGTTCGA,-0.0879 ± 0.061
21,ATTGTTGG,-0.0472 ± 0.037
22,AGTGGGAA,0.217 ± 0.044
23,GACTACCA,-0.113 ± 0.086
24,CCGGGTAA,-0.175 ± 0.034
25,GAGGCTGC,-0.0285 ± 0.077

row,Sequence,PBM E-score of 8-mer
1,CGAGCCCC,0.0228 ± 0.043
2,AGCACTAG,-0.2417 ± 0.0019
3,GTTCATCA,0.0211 ± 0.0087
4,CTGATATA,-0.133 ± 0.0076
5,GCAGATAC,-0.188 ± 0.01
6,CTGCGAAA,0.342 ± 0.036
7,CGATCACC,0.034 ± 0.021
8,ACGACTCT,-0.0322 ± 0.0043
9,AGCTGACT,-0.204 ± 0.031
10,CTGTAGTA,-0.17 ± 0.027
11,CATCTGGA,-0.0803 ± 0.042
12,CCGGCGTA,-0.0982 ± 0.0024
13,GATTTTTA,-0.188 ± 0.0038
14,CCTTCGAG,0.07531 ± 0.00073
15,AACGTGCA,0.0678 ± 0.024
16,GATAGCCC,-0.217 ± 0.0042
17,ACGCAACT,0.0194 ± 0.043
18,CTTGGATC,-0.102 ± 0.083
19,CGGTGGAA,-0.0405 ± 0.033
20,GAAGATAA,-0.0122 ± 0.087
21,CAAGTCAG,-0.139 ± 0.091
22,AACTTAAG,-0.0796 ± 0.11
23,AGGGAAAG,-0.11 ± 0.059
24,ATGGAGTC,-0.1693 ± 0.00018
25,GAACTGCC,-0.146 ± 0.024

row,Sequence,PBM E-score of 8-mer
1,GACCGATA,-0.15 ± 0.1
2,ATCTGCGA,0.183 ± 0.034
3,CCCGATCG,-0.127 ± 0.018
4,GATCCGCC,-0.161 ± 0.076
5,ACTGTGGA,-0.0283 ± 0.019
6,AGGGAGGA,-0.385 ± 0.054
7,ATTCCCTG,-0.161 ± 0.059
8,CGCCTGAC,0.111 ± 0.0091
9,GTCGAGCA,0.0707 ± 0.028
10,GTAGCTAC,-0.408 ± 0.089
11,CCGCCTAG,-0.135 ± 0.12
12,AATGGTCC,-0.328 ± 0.064
13,AGCAGTAG,-0.115 ± 0.056
14,AAGCGCAA,0.113 ± 0.0027
15,AGACCAGA,-0.239 ± 0.031
16,ATTGCTAA,0.111 ± 0.073
17,CACATTAG,0.2308 ± 0.00053
18,CGGAACTA,-0.186 ± 0.047
19,AGACGACT,-0.202 ± 0.093
20,GGATATCC,-0.122 ± 0.057
21,GAATATCC,-0.102 ± 0.017
22,CGTTAGAA,0.0251 ± 0.033
23,ACTTCCTA,0.0196 ± 0.063
24,ACACTAAA,0.228 ± 0.0039
25,AGCGCGTC,0.182 ± 0.021

row,Sequence,PBM E-score of 8-mer
1,GCAGCACC,0.252 ± 0.0061
2,CCATGTCC,-0.383 ± 0.012
3,CTGGGTCC,-0.0833 ± 0.033
4,AATGTCGT,0.0328 ± 0.037
5,GGCCGCAA,0.0133 ± 0.066
6,CGAACGTA,0.00396 ± 0.01
7,ACGGACCC,-0.132 ± 0.016
8,AGAGACAC,0.132 ± 0.017
9,ACGTAAAT,0.021 ± 0.037
10,GCGAACCC,0.257 ± 0.028
11,AGAAAACT,-0.226 ± 0.016
12,AGCCCGGA,-0.363 ± 0.051
13,CATATTGA,0.0115 ± 0.11
14,CAAACGCA,-0.0586 ± 0.061
15,CATTGGAG,-0.0737 ± 0.091
16,CGGTGCTA,0.258 ± 0.035
17,CATCTAAC,0.048 ± 0.04
18,AATGACTC,0.0605 ± 0.065
19,GTAACTAA,-0.299 ± 0.025
20,CGGGTGCA,0.157 ± 0.062
21,CAGTGGGC,-0.126 ± 0.0071
22,CAATGGCC,-0.1163 ± 0.00099
23,GACATCAC,0.172 ± 0.0072
24,CCCCTGCA,-0.101 ± 0.04
25,ATACATTC,-0.112 ± 0.12

row,Sequence,PBM E-score of 8-mer
1,CTAGGCAA,-0.129 ± 0.021
2,GACTTGCC,0.123 ± 0.055
3,AATGACAG,0.0199 ± 0.049
4,ACAAGAGA,-0.0789 ± 0.03
5,CTCTGTCC,-0.175 ± 0.0063
6,CATCACGA,0.023 ± 0.054
7,AACGTGGG,0.191 ± 0.00081
8,CCTCTCGA,0.0753 ± 0.052
9,ATGCTCTG,-0.168 ± 0.038
10,AGCATCCG,-0.00374 ± 0.047
11,CAATGTTC,0.0149 ± 0.0044
12,GGATTGTA,-0.0849 ± 0.02
13,ACGGCGCC,0.0439 ± 0.037
14,CAACCCTG,0.014 ± 0.024
15,ACCTACGT,0.0495 ± 0.029
16,GGGACTTA,-0.274 ± 0.00081
17,CTACGAAG,-0.134 ± 0.028
18,ATCGCACA,0.366 ± 0.0063
19,GCGCATGA,-0.0586 ± 0.067
20,CATGCACA,-0.0153 ± 0.014
21,ACCCTATC,0.0781 ± 0.032
22,TCTGAGCA,-0.164 ± 0.098
23,GAGACGTA,0.0575 ± 0.021
24,ATTTGGAG,-0.228 ± 0.0036
25,ACATTAAA,-0.164 ± 0.062

row,Sequence,PBM E-score of 8-mer
1,CCTGTATA,-0.0306 ± 0.022
2,CGTACTCC,-0.0535 ± 0.087
3,CCTATTTC,-0.154 ± 0.055
4,ACCGATCG,0.256 ± 0.12
5,AGTCATAT,-0.228 ± 0.092
6,CGACAGGA,0.00104 ± 0.065
7,AAGCTTAG,-0.108 ± 0.11
8,ACACTACC,0.209 ± 0.061
9,TACCTCCA,-0.0368 ± 0.093
10,AGTGCTAA,0.412 ± 0.015
11,GTCAGCCA,0.127 ± 0.048
12,AGGGATTG,-0.138 ± 0.0095
13,GCGCGGTA,0.014 ± 0.12
14,ATATAGGC,-0.0504 ± 0.058
15,ACCGAAAA,-0.0959 ± 0.065
16,CAACAAGC,0.103 ± 0.051
17,AACCTTAA,-0.218 ± 0.046
18,GGGTGCTA,0.397 ± 0.0085
19,GGGGCTAA,-0.0514 ± 0.017
20,TGATTTAA,-0.156 ± 0.075
21,AAAGTCTC,0.0594 ± 0.02
22,GCAATTGC,0.22 ± 0.011
